Here are results for 24 molecules from publication PMC4336329 (PLoS ONE, 2015).

Hit rate of the full screen: of about 310,000 compounds, about 14,000 (4.5%) showed an effect of 50% or more. Effects have a minus sign here. The list shows a part of the results.
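Note: peak tail current of the secondary pulse compared with the same well before compound.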

In this test the target is human ether-à-go-go-related gene (hERG) potassium channel (human, UniProt Q12809). As to the kind of experiment: primary screen, population patch clamp on CHO cells stably expressing hERG.
Chain of human ether-à-go-go-related gene (hERG) potassium channel (Q12809 whole entry, looked up): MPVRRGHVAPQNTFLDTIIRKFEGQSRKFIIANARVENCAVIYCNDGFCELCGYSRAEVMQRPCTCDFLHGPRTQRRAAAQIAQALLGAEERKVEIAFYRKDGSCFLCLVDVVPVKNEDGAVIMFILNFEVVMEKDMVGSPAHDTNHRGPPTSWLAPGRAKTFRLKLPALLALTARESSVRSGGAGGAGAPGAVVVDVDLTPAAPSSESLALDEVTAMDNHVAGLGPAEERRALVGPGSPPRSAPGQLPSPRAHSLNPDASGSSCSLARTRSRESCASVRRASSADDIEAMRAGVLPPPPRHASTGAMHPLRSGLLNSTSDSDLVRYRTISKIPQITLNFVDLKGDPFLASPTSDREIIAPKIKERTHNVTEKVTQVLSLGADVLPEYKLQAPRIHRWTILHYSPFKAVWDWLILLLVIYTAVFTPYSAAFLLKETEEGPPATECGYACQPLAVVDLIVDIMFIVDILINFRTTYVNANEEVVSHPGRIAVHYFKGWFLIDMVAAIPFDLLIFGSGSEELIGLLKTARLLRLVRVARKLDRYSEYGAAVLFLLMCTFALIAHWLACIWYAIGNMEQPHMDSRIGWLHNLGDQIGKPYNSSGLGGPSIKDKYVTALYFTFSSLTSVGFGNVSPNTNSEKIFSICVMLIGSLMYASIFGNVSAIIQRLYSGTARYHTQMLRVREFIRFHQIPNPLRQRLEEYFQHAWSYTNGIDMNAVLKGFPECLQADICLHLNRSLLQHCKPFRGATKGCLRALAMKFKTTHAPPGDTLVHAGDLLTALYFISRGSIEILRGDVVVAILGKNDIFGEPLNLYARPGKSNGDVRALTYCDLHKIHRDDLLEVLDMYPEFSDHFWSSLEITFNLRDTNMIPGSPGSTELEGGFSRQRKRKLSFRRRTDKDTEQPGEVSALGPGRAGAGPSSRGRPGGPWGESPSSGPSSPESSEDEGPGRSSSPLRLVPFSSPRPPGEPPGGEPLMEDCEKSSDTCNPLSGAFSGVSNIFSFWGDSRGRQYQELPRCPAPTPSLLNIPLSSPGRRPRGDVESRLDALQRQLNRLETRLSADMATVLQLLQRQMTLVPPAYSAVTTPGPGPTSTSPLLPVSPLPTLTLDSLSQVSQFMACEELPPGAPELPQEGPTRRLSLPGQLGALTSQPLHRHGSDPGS
Turning to `COc1ccccc1Nc1ccc2nonc2c1[N+](=O)[O-]`, the “hERG current change (%, negative = inhibition) at 10uM” value was determined as 6.71%.
The figure for `CC(C)(C)NC(=O)C(c1ccncc1)N(C(=O)Cn1nnc(-c2cccs2)n1)C1CCCCC1` (stereo not drawn) is -19.6%; for `CCCCNS(=O)(=O)c1ccc(NC(=O)Cc2ccc(OC)cc2)cc1` it is 4.9%.
Next, `O=C(CCn1c(=O)sc2ccccc21)NCc1ccccc1`: 1.73%; `COc1cc(/C=C/c2sc3ccccc3[n+]2CCCS(=O)(=O)[O-])ccc1O`: -1.39%.
The figure for `N#Cc1ccc(C23CC4(C2)[C@H](CN(CC2CCCCC2)[C@@H]4c2ccccc2)C3c2ccc(Cl)nc2)cc1` (stereo partly drawn) is -26.4%.
Consider `COc1cccc(/C=C/C(=O)N2CCN(c3ccccn3)CC2)c1`, for which the “hERG current change (%, negative = inhibition) at 10uM” value is listed as -18.6%.
In the case of `Cc1cccc(N2CC(C(=O)Nc3ccc4c(c3)OCCO4)CC2=O)c1C` (stereo not drawn), the “hERG current change (%, negative = inhibition) at 10uM” value amounted to 16.4%.
The figure for `O=C(CCCCCN1C(=O)c2cccc3cccc(c23)C1=O)NCCO` is -11.9%; for `O=S1OCCN1c1ccccc1` (stereo not drawn) it is 10.4%; for `CCCn1c(=O)c(C(=O)NCCc2ccccc2)c(O)c2ccccc21` it is 20.2%.
Turning to `CCCCNC(=O)Nc1nnc(C(C)(C)C)s1`, the “hERG current change (%, negative = inhibition) at 10uM” value is recorded as -3.96%.
Next, `COC(=O)c1cc2oc(C)cc2n1CC(=O)Nc1cc(C)cc(C)c1`: 18.5%; `Cc1ccc(NC(=O)c2nc[nH]c2C(=O)Nc2ccc(C)cc2)cc1`: 3.38%.
Next, `COc1ccccc1C1C(C#N)=C(N)Oc2cc(C)n(Cc3ccccn3)c(=O)c21` (stereo not drawn): -2.81%; `Cc1cc(C)n(C2CC(=O)N(c3ccc(C)c(Cl)c3)C2=O)n1` (stereo not drawn): 28.1%.
Turning to `COc1ccc(NC(=O)CN2CCC(NC(=O)c3ccco3)CC2)c([N+](=O)[O-])c1`, the “hERG current change (%, negative = inhibition) at 10uM” value is on record as -43.5%.
Next, `Cc1cc[n+](CCC(=O)O)c2ccccc12.[Br-]`: 13.9%.
`O=C(CC12CC3CC(CC(C3)C1)C2)N1CCOCC1`: the “hERG current change (%, negative = inhibition) at 10uM” value is -1.47%.
Next, `COc1ccc(-c2csc(NC(=S)NC(=O)c3ccc4ccccc4c3)n2)cc1OC`: 24.8%; `COc1ccc2c(c1)OC[C@H]1[C@H]2N2C(=O)CN(C)C(=O)[C@@]2(C)[C@H]1c1ccccc1`: 2.07%; `CC(NC(=O)CN1C(=O)NC(c2ccccc2)(c2ccccc2)C1=O)c1cccs1` (stereo not drawn): 13.3%.
The figure for `O=[N+]([O-])c1ccc(-n2nncc2-c2ccc(Cl)cc2)cc1` is -72.7%.
Next, `O=C1NC(=S)N/C1=C\c1ccccc1OCc1ccc(C(=O)O)cc1`: -18.9%.
